# In PubChem BioAssay AID1347120 (National Center for Advancing Translational Sciences (NCATS), 2019):
# Among all 390,000 compounds or so, about 930 (0.24%) were called active. Inconclusive means that the source gave no clear call. Such entries were picked first, then a sample of the others. Calls come from the whole dose curve; as a rule, active = well fitted activation curve with a large enough effect; inconclusive = small, poorly fitted or top-dose-only effect; inactive = no such curve, though single readings can be large or run the other way. Where the call is inconclusive, the potency comes from a doubtful curve fit.
# Assay: qHTS for Suppressors of FUS Proteinopathy: Primary screen using FUS-linked yeast assay; note: nearly all actives have a fitted effect of over 55% in size
# Conditions: S. cerevisiae FUS-expressing, OD600, 24 h; Potency: growth rescue; series mostly up to 76.6 µM
# Outline: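 Absorbance at 600 nm, taken 24hr after compound addition, measured rescue of FUS-yeast growth at 30C. Induction used 2% galactose with seeding at OD 0.005. Controls: CP55940 from 92uM final, DMSO only.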
# Potency is the fitted concentration of half-maximal effect; tags give direction and shape of the fitted curve.
row,Structure (SMILES),Potency
1,Cc1[nH]c2ccccc2c1CCN,"inconclusive: 50.1 µM [activator, single point]"
2,Cc1cccn2c(NCC3CCCO3)c(C(C)C)nc12 (stereo not given),inactive
3,CCC(=O)N1N=C(c2c(O)n(CCc3ccccc3)c(=O)[nH]c2=O)CC1c1ccc(OC)c(OC)c1 (stereo not given),"inconclusive: 12.6 µM [activator, partial curve]"
4,CC[C@H](C)[C@@H]1OC(=O)[C@H](C(C)C)N(C)C(=O)[C@H](C(C)C)NC(=O)[C@@H](C)[C@@H](CCCC#CBr)OC(=O)[C@H](C(C)C)N(C)C(=O)C2CCCN2C1=O (stereo not given in full),"inconclusive: 11.2 µM [activator, partial curve, poor fit]"
5,COC(=O)C1=C(c2ccc(F)cc2OCc2ccccc2)C[C@@H]2CC[C@H]1N2C(=O)NCc1cccc(OC)c1,"inconclusive: 25.1 µM [activator, partial curve]"
6,CC(C)[C@@]1(NC(=O)[C@@H]2C[C@@H]3c4cccc5[nH]cc(c45)C[C@H]3N(C)C2)O[C@@]2(O)[C@@H]3CCCN3C(=O)[C@H](Cc3ccccc3)N2C1=O,"inconclusive: 31.6 µM [activator, single point]"
7,N#Cc1ccc2nc(-c3ccc(CN4CCC(n5c(=O)[nH]c6ccccc65)CC4)cc3)c(-c3ccccc3)nc2c1,"inconclusive: 10 µM [activator, partial curve, poor fit]"
8,Cc1ccccc1-n1c(C)cc(/C=C2/C(=O)NC(=O)N(Cc3ccco3)C2=O)c1C,"inconclusive: 39.8 µM [activator, single point]"
9,COc1ccc2[nH]c3c(c2c1)CCN=C3C,"inconclusive: 20 µM [activator, single point]"
10,Oc1ccc(/C=N/NP(=S)(c2ccccc2)c2ccccc2)c(O)c1O,"inconclusive: 35.5 µM [activator, partial curve, poor fit]"
11,CN1CCc2nc3ccc(F)cc3c(C(N)=O)c2C1,inactive
12,O=c1[nH]c2ccccc2n1C1CCN(C(c2ccccc2)c2nnnn2-c2ccc3c(c2)OCCO3)CC1 (stereo not given),"inconclusive: 28.2 µM [activator, partial curve]"
13,CC(C)N1C(=O)CC2(CC[N+](C)(CCOC(=O)C(O)(c3ccccc3)c3ccccc3)CC2)C1=O (stereo not given),"inconclusive: 0.891 µM [activator, full curve, poor fit]"
14,CC(C)CCNC(=O)c1c(N)n(CC2CCCO2)c2nc3ccccc3nc12 (stereo not given),"inconclusive: 50.1 µM [activator, single point]"
15,COC(=O)C1=C(c2ccc(OCc3ccccc3)cc2)C[C@@H]2CC[C@H]1N2C(=O)NCc1ccc(OC)c(OC)c1,"inconclusive: 22.4 µM [activator, partial curve]"
